Test results taken from PubChem BioAssay AID588795 (National Center for Advancing Translational Sciences (NCATS), 2011).
Several values for one entry are separate records, joined by “and”; a condition that tells them apart may be missing. Equal values may be shown once. Hit rate of the full screen: of about 390,000 compounds, about 1,400 (0.36%) were called active. This list was built around the results that the source calls inconclusive (neither active nor inactive); the mix of calls is not that of the screen. The call rests on the fitted dose curve; in most records, active means well fitted inhibition curve with a large enough effect; inconclusive means small, poorly fitted or top-dose-only effect; inactive means no such curve, though single readings can be large or run the other way. Potencies of inconclusive entries are doubtful fits and often do not repeat.

target: Flap endonuclease 1 (Homo sapiens) (UniProt P39748); assay: qHTS Assay for the Inhibitors of Human Flap endonuclease 1 (FEN1).; further: nearly all actives have a fitted effect of over 65% in size; settings: Recombinant FEN1 flap cleavage, fluorescence, 15 min; series mostly up to 114 µM; activity change, negative = inhibition: at the top concentration
Chain of UniProt P39748 (P39748 whole entry, looked up): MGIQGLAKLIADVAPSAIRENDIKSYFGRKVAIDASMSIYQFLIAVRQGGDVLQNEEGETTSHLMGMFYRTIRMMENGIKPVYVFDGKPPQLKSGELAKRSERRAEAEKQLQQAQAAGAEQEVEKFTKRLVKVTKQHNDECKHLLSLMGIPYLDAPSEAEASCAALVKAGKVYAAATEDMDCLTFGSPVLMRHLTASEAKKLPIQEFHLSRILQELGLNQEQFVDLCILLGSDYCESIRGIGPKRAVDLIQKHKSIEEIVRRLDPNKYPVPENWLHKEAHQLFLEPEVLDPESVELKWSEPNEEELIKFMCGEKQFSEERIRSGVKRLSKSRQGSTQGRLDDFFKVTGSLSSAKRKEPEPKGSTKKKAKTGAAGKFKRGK
In short: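 Read-out was taken twice, immediately and after 15 min, following addition of 50 nM substrate to 10 nM FEN1 that had sat with test compound for 15 min at room temperature. Curves came from a four-parameter Hill model.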
On the % scale 0 is the no-effect control and ±100 the full control effect; potency means the concentration at half of the fitted maximal effect; tags describe the fitted curve by direction and shape.

Row | Structure (SMILES) | Potency | activity change, negative = inhibition
1 | CCN1/C(=C/c2ccc3ccc(C)cc3[n+]2CC)Sc2ccccc21 | active: 50.1 µM | –
2 | c1ccc(Nc2nc(-c3ccccc3)c(-c3ccccc3)s2)cc1 | – | inactive: -8.56%
3 | CCc1cc(C(=O)Cc2cnn(-c3ccccc3)c2)c(O)cc1O | inconclusive: 56.2 µM [inhibitor, partial curve, poor fit] | –
4 | COc1ccc2c(C)c(CC(=O)N3CCN(C(=O)C4COc5ccccc5O4)CC3)c(=O)oc2c1 (configuration not stated) | inconclusive: 22.4 µM [inhibitor, partial curve, poor fit] | –
5 | CC1=C(C(=O)O)N2C(=O)C(NC(=O)c3ccn(C)n3)C2SC1 (configuration not stated) | – | inactive: -0.839%
6 | COC(=O)NC(=S)Nc1ccc(Oc2ccc(Cl)cc2Cl)c(Cl)c1 | – | inactive: -22.2%
7 | CC(=O)Nc1cc(O)c2nonc2c1O | inconclusive: 20 µM [inhibitor, full curve] | –
8 | COc1ccc(-n2c(=O)c3c4c(sc3n(Cc3cc(=O)n5c(C)cccc5n3)c2=O)CCC4)c(OC)c1 | – | inactive: -7.05%
9 | COc1ccc(C2CC(=O)N3CN(C4CCCCC4)CSC3=C2C#N)cc1 (configuration not stated) | inconclusive: 31.6 µM [inhibitor, single point] | –
10 | COc1cc(OC)c(N(C)S(=O)(=O)c2cccc(C(=O)Nc3nc(C)cs3)c2)cc1Cl | inconclusive: 50.1 µM [inhibitor, partial curve, poor fit] | –
11 | O=C(NCCCN1CCN(c2ccccc2)CC1)c1cc2c(s1)-c1ccccc1OC2 | inconclusive: 79.4 µM [inhibitor, partial curve, poor fit] | –
12 | CC1CN(c2ccccc2)c2nc3c(c(=O)[nH]c(=O)n3C)n2C1 (configuration not stated) | – | inactive: -6.46%
13 | C=CCN1C(=O)/C(=C\C=C2\N(C)c3ccccc3C2(C)C)SC1=S | inconclusive: 3.55 µM [inhibitor, partial curve, poor fit] | –
14 | COC(=O)/C(C(C)=O)=C(\C=C\N(C)C)N(C)C | – | inactive: -0.116%
15 | COc1ccc(-c2[nH]c(-c3ccc(OC)c(OC)c3)nc2SCC(=O)Nc2ccccc2)cc1 | inconclusive: 70.8 µM [inhibitor, single point] | –
16 | CCCCn1nc(C(=O)Nc2ccc(-n3cnnn3)cc2)c2ccccc2c1=O | inconclusive: 1.41 µM [inhibitor, partial curve, poor fit] | –
17 | O=C1NC(=S)S/C1=C\c1cc2ccccc2nc1N1CCCCC1 | – | inactive: -11.6%
18 | COc1cc(C(=O)N/N=C/c2cccc(Oc3ccccc3)c2)ccc1O | inconclusive: 79.4 µM [inhibitor, partial curve, poor fit] | –
19 | COc1ccc(CNc2nc(-c3cccnc3)nn2C(=O)c2cccs2)cc1 | inconclusive: 56.2 µM [inhibitor, partial curve, poor fit] | –
20 | Cc1nn(CCCC(=O)NCc2ccccc2)c(=O)c2c1sc1ccccc12 | inconclusive: 22.4 µM [inhibitor, full curve] | –
21 | COc1cc(NC(=O)C2=C(C)Nc3nnnn3C2c2ccc(SC)cc2)c(OC)cc1Cl (configuration not stated) | – | inactive: -4.57%
22 | Cc1cc(C)n2nc3nc(N4CCCCC4)nc(-c4ccco4)c3c2n1 | inconclusive: 39.8 µM [inhibitor, partial curve, poor fit] | –
23 | O=C1NN(c2ccc(Cl)c(Cl)c2)C(=O)/C1=C/c1ccc(-c2ccccc2C(=O)O)o1 | inconclusive: 56.2 µM [inhibitor, partial curve, poor fit] | –

Row | Structure (SMILES) | Potency | activity change, negative = inhibition
24 | Cc1ccc(C(=O)O)cc1-c1ccc(/C=C2\SC(=O)N(CC(=O)Nc3ccccc3)C2=O)o1 | active: 50.1 µM | –
25 | CCOc1ccc(C(=O)Nc2ccc(Cc3ccncc3)cc2)cc1Br | inconclusive: 79.4 µM [inhibitor, partial curve, poor fit] | –
26 | N#Cc1cccc2c1-c1ccccc1/C2=N/NC(N)=O | inconclusive: 11.2 µM [inhibitor, full curve] | –
27 | COc1ccc(NC(=O)Cn2c(=O)n(-c3ccc(Cl)cc3)c(=O)c3c(C)c(C(=O)N(C)C)sc32)cc1Cl | – | inactive: 20%
28 | CCOc1cc(/C=N/Nc2ncnc(Cl)c2N)ccc1O | inconclusive: 50.1 µM [inhibitor, partial curve, poor fit] | –
29 | O=C(CSc1ccc(Cl)cc1)c1ccco1 | inconclusive: 50.1 µM [inhibitor, partial curve, poor fit] | –
30 | CC1=CC(=C2C(=O)c3ccccc3C2=O)C=C(C)N1Cc1ccco1 | inconclusive: 25.1 µM [inhibitor, partial curve, poor fit] | –
31 | CN(C)c1ccc(/C=C/c2nc3ccccc3s2)cc1Cl | inconclusive: 50.1 µM [inhibitor, partial curve, poor fit] | –
32 | COCCn1c(N)c(C(=O)NCC2CCCO2)c2nc3ccccc3nc21 (configuration not stated) | – | inactive: -10.5%
33 | CCc1ccc(C(=O)C(C)OC(=O)c2nc3nc(C)cc(C)n3n2)cc1 (configuration not stated) | – | inactive: -5.31%
34 | CCc1ccc(NC(=O)CCNC(=O)Cn2cnc3ccccc3c2=O)cc1 | inactive | –
35 | Cc1ccc(N2CC(O)=C(c3nc4ccccc4c(=O)[nH]3)C2=N)cc1C | inconclusive: 56.2 µM [inhibitor, partial curve, poor fit] | –
36 | CC(=O)N1CCc2cc(S(=O)(=O)NC(C(=O)NC(C)c3ccccc3)C(C)C)ccc21 (configuration not stated) | – | inactive: -0.805%
37 | COc1ccccc1C1/C(=C(/O)c2ccccc2)C(=O)C(=O)N1CCO (configuration not stated) | inconclusive: 56.2 µM [inhibitor, partial curve, poor fit] | –
38 | CC(=O)Oc1cc2c3c(c1)/C(=C1/SC(=S)NC1=O)C(=O)N3C(C)(C)C=C2C | inconclusive: 28.2 µM [inhibitor, full curve, poor fit] | –
39 | CCc1nc2ccc(C(=O)NCCc3ccc(OC)cc3OC)cc2nc1CC | – | inactive: 5.73%
40 | CCOC(=O)c1cc(-c2ccc(C)cc2)n(CCC(=O)Nc2cc(Cl)ccc2C)c1C | – | inactive: 1.36%
41 | COc1ccc(/C=C2/SC(=S)NC2=O)cc1OCc1ccccc1 | inconclusive: 70.8 µM [inhibitor, partial curve, poor fit] | –
42 | CCn1cc(C(=O)O)c(=O)c2cc(F)c(N3CCN(C(=S)NC(=O)c4cccc(F)c4)CC3)cc21 | – | inactive: -3.39%
43 | Cc1cc(C)c2c(=O)n(CC(=O)Nc3cccc(F)c3)sc2n1 | inconclusive: 89.1 µM [inhibitor, single point] | –
44 | COc1ccc(OC)c(Nc2nc(-c3sc(N)nc3C)cs2)c1 | inconclusive: 70.8 µM [inhibitor, partial curve, poor fit] | –
45 | Cc1cc(Br)ccc1SCC(=O)OCC(=O)NCc1ccco1 | inconclusive: 50.1 µM [inhibitor, partial curve, poor fit] | –
46 | CC(=O)Nc1ccc(S(=O)(=O)Nc2nc3ccccc3nc2Nc2ccc(O)c(C(=O)O)c2)cc1 | inconclusive: 20 µM [inhibitor, partial curve, poor fit] | –

Row | Structure (SMILES) | Potency | activity change, negative = inhibition
47 | CC(CC1CC(C)(C)OC1=O)C(=O)Nc1ccc([N+](=O)[O-])cc1 (configuration not stated) | – | inactive: -5.15%
48 | Cc1ccc2[nH]c3c(=O)n(CC(=O)N4CCCC(C)C4)ncc3c2c1 (configuration not stated) | inconclusive: 3.98 µM [inhibitor, partial curve, poor fit] | –
49 | CCc1ccc(-c2nc(CSCC(=O)NCc3ccc(C)cc3)c(C)o2)cc1 | – | inactive: -14.8%
50 | CCc1ccc(NC(=O)CC2C(=O)N(c3ccc(Cl)cc3)C(=O)N2C2CCCC2)cc1 (configuration not stated) | active: 39.8 µM | –
51 | COC(=O)[C@@H]1C[C@@H](C(=O)O)[C@H](C)C1(C)C | – | inactive: -0.313%
52 | CCCCCCSc1ccc(-c2nc3ccccn3c2NCCCC)cc1 | inconclusive: 31.6 µM [inhibitor, partial curve, poor fit] | –
53 | OCCN1CCN(Cc2cc(Cl)c3cccnc3c2O)CC1 | inconclusive: 56.2 µM [inhibitor, partial curve, poor fit] | –
54 | Cc1cccc(-c2c3c(=O)n(C)c(=O)n(C)c3c3cccnn23)c1 | inconclusive: 79.4 µM [inhibitor, partial curve, poor fit] | –
55 | Cc1ccc(-c2cc(C(=O)Nc3cccnc3)c3ccccc3n2)o1 | – | inactive: -22%
56 | CSc1ccc(/C=C/C(=O)Nc2ccccc2)cc1 | – | inactive: 2.93%
57 | O=S(=O)(c1cccc(Cl)c1)N1CCN(c2nc(-c3cccs3)nc3ccccc23)CC1 | inactive | –
58 | COc1ccc(Nc2nc(-c3ccccc3F)nc3ccccc23)cc1OC | inconclusive: 50.1 µM [inhibitor, partial curve, poor fit] and inconclusive: 5.01 µM [inhibitor, full curve, poor fit] | –
59 | CC(/C=N/NC(=O)c1cc(C(C)(C)C)[nH]n1)=C\c1ccccc1 | – | inactive: 4.57%
60 | CN(C)CCN(C)Cc1c2ccccc2c(CN(C)CCN(C)C)c2ccccc12 | active: 50.1 µM | –
61 | O=c1cc(N2CCOCC2)oc2c(-c3ccccc3)cccc12 | inconclusive: 21.2 µM [inhibitor, single point] | –
62 | CCOC(=O)N1CCCN(/[N+]([O-])=N/Oc2ccc([N+](=O)[O-])cc2[N+](=O)[O-])CC1 | – | inactive: -5.22%
63 | Cc1[nH]c2ccccc2c1/C=C(\C#N)C(=O)NC(C)c1ccccc1 (configuration not stated) | inconclusive: 79.4 µM [inhibitor, partial curve, poor fit] | –
64 | CCOc1ccccc1CN1CCc2nc(Nc3ccccc3)ncc2C1 | inconclusive: 79.4 µM [inhibitor, partial curve, poor fit] | –
65 | Cc1ccc2c(c1)[C@H]1[C@H](CO2)[C@H](c2ccccc2)[C@]2(C)C(=O)N(Cc3ccco3)CC(=O)N12 | inconclusive: 79.4 µM [inhibitor, partial curve, poor fit] | –
66 | N#Cc1ccc(C(=O)N(Cc2ccccc2)c2ccccc2)cc1 | – | inactive: 4.36%
67 | Cc1ccnc2ccc3ccccc3c12 | inconclusive: 44.7 µM [inhibitor, partial curve] | –
